This is one part of the list.
Columns and labels:
Experiment in all cases: glycan array binding signal (z-score within array); higher = stronger binding
Conditions in all cases: glycan notation: IUPAC condensed, linker removed
[1] = target: Gal(b1-4)GlcNAc(b1-3)[GlcNAc(b1-6)]Gal(b1-4)GlcNAc
Procedure, shortened: (§1)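 Glycan array data came from 3228 arrays in the Consortium for Functional Glycomics database, and only arrays with an available protein sequence were kept. Glycan names were put into IUPAC-condensed notation, and columns mapping to the same glycan were averaged. The binding signal is a within-array Z-score, averaged across arrays of one protein sequence run at different concentrations or buffers and across linkers. A negative Z-score can be read as non-binding.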

[2] = target: Gal(b1-4)GlcNAc(b1-6)Gal(b1-4)GlcNAc
Procedure, shortened: as §1

[3] = target: Gal(b1-4)GlcNAc(b1-6)GalNAc
Procedure, shortened: as §1

[4] = target: Gal(b1-4)GlcNAc(b1-6)[Gal(b1-3)]GalNAc
Procedure, shortened: as §1

Gal(b1-4)GlcNAc6P = target: Gal(b1-4)GlcNAc6P
Procedure, shortened: as §1

Gal(b1-6)Gal = target: Gal(b1-6)Gal
Procedure, shortened: as §1

Gal3S(b1-3)GalNAc = target: Gal3S(b1-3)GalNAc
Procedure, shortened: as §1

Gal3S(b1-3)GlcNAc = target: Gal3S(b1-3)GlcNAc
Procedure, shortened: as §1

[5] = target: Gal3S(b1-3)[Fuc(a1-4)]GlcNAc
Procedure, shortened: as §1

Gal3S(b1-4)Glc = target: Gal3S(b1-4)Glc
Procedure, shortened: as §1

Gal3S(b1-4)Glc6S = target: Gal3S(b1-4)Glc6S
Procedure, shortened: as §1

Gal3S(b1-4)GlcNAc = target: Gal3S(b1-4)GlcNAc
Procedure, shortened: as §1

Gal3S(b1-4)GlcNAc6S = target: Gal3S(b1-4)GlcNAc6S
Procedure, shortened: as §1

[6] = target: Gal3S(b1-4)[Fuc(a1-3)]Glc
Procedure, shortened: as §1

[7] = target: Gal3S(b1-4)[Fuc(a1-3)]Glc6S
Procedure, shortened: as §1

Gal3S4S(b1-4)GlcNAc = target: Gal3S4S(b1-4)GlcNAc
Procedure, shortened: as §1

Gal3S6S(b1-4)GlcNAc = target: Gal3S6S(b1-4)GlcNAc
Procedure, shortened: as §1

Gal3S6S(b1-4)GlcNAc6S = target: Gal3S6S(b1-4)GlcNAc6S
Procedure, shortened: as §1

Gal4S(b1-4)GlcNAc = target: Gal4S(b1-4)GlcNAc
Procedure, shortened: as §1

Gal4S6S(b1-4)GlcNAc = target: Gal4S6S(b1-4)GlcNAc
Procedure, shortened: as §1

Gal6P(b1-4)GlcNAc = target: Gal6P(b1-4)GlcNAc
Procedure, shortened: as §1

Gal6S(b1-3)GlcNAc = target: Gal6S(b1-3)GlcNAc
Procedure, shortened: as §1

Gal6S(b1-3)GlcNAc6S = target: Gal6S(b1-3)GlcNAc6S
Procedure, shortened: as §1

Gal6S(b1-4)Glc = target: Gal6S(b1-4)Glc
Procedure, shortened: as §1

Gal6S(b1-4)Glc6S = target: Gal6S(b1-4)Glc6S
Procedure, shortened: as §1

Gal6S(b1-4)GlcNAc = target: Gal6S(b1-4)GlcNAc
Procedure, shortened: as §1

Gal6S(b1-4)GlcNAc6S = target: Gal6S(b1-4)GlcNAc6S
Procedure, shortened: as §1

GalNAc(a1-3)Gal = target: GalNAc(a1-3)Gal
Procedure, shortened: as §1

GalNAc(a1-3)GalNAc = target: GalNAc(a1-3)GalNAc
Procedure, shortened: as §1

[8] = target: GalNAc(a1-3)GalNAc(b1-3)Gal(a1-4)Gal(b1-4)Glc
Procedure, shortened: as §1

[9] = target: GalNAc(a1-3)GalNAc(b1-3)Gal(a1-4)Gal(b1-4)GlcNAc
Procedure, shortened: as §1

GalNAc(b1-3)Gal = target: GalNAc(b1-3)Gal
Procedure, shortened: as §1

[10] = target: GalNAc(b1-3)Gal(a1-4)Gal(b1-4)GlcNAc
Procedure, shortened: as §1

[11] = target: GalNAc(b1-3)Gal(a1-4)Gal(b1-4)GlcNAc(b1-3)Gal(b1-4)Glc
Procedure, shortened: as §1

[12] = target: GalNAc(b1-3)Gal(a1-6)Gal(b1-4)Glc
Procedure, shortened: as §1

GalNAc(b1-3)GalNAc = target: GalNAc(b1-3)GalNAc
Procedure, shortened: as §1

GalNAc(b1-4)Gal(b1-4)Glc = target: GalNAc(b1-4)Gal(b1-4)Glc
Procedure, shortened: as §1

GalNAc(b1-4)GlcNAc = target: GalNAc(b1-4)GlcNAc
Procedure, shortened: as §1

[13] = target: GalNAc(b1-4)GlcNAc(b1-2)Man(a1-3)[GalNAc(b1-4)GlcNAc(b1-2)Man(a1-6)]Man(b1-4)GlcNAc(b1-4)GlcNAc
Procedure, shortened: as §1

GalNAc(b1-4)GlcNAc6S = target: GalNAc(b1-4)GlcNAc6S
Procedure, shortened: as §1

GalNAc(b1-6)GalNAc = target: GalNAc(b1-6)GalNAc
Procedure, shortened: as §1

GalNAc3S(b1-4)GlcNAc = target: GalNAc3S(b1-4)GlcNAc
Procedure, shortened: as §1

GalNAc3S(b1-4)GlcNAc3S = target: GalNAc3S(b1-4)GlcNAc3S
Procedure, shortened: as §1

GalNAc4S6S(b1-4)GlcNAc = target: GalNAc4S6S(b1-4)GlcNAc
Procedure, shortened: as §1

GalNAc6S(b1-4)GlcNAc = target: GalNAc6S(b1-4)GlcNAc
Procedure, shortened: as §1

B1: CIH1 (Colletotrichum higginsianum) (protein)
chain: LPQATPTTPTPTSASAAATISATSSPTCSPGPVIDYTVVSGDTLTIISQRFSSGICNIADASGITNPNFLSLGQVLQVPTYVCTPDNTSCLAKEGSDTCVEGGPATHTIVAGDTFFLVAQSLGLDVNALLAANEGVDPLLLQIGDVINIPVC
[1]
  glycan array binding signal (z-score): -0.073
[2]
  glycan array binding signal (z-score): -0.078
[3]
  glycan array binding signal (z-score): -0.06
[4]
  glycan array binding signal (z-score): -0.072
Gal(b1-4)GlcNAc6P
  glycan array binding signal (z-score): -0.083
Gal(b1-6)Gal
  glycan array binding signal (z-score): -0.072
Gal3S(b1-3)GalNAc
  glycan array binding signal (z-score): -0.067
Gal3S(b1-3)GlcNAc
  glycan array binding signal (z-score): -0.054
[5]
  glycan array binding signal (z-score): -0.079
Gal3S(b1-4)Glc
  glycan array binding signal (z-score): -0.073
Gal3S(b1-4)Glc6S
  glycan array binding signal (z-score): -0.071
Gal3S(b1-4)GlcNAc
  glycan array binding signal (z-score): -0.067
Gal3S(b1-4)GlcNAc6S
  glycan array binding signal (z-score): -0.071
[6]
  glycan array binding signal (z-score): -0.081
[7]
  glycan array binding signal (z-score): 0.006
Gal3S4S(b1-4)GlcNAc
  glycan array binding signal (z-score): -0.022
Gal3S6S(b1-4)GlcNAc
  glycan array binding signal (z-score): -0.063
Gal3S6S(b1-4)GlcNAc6S
  glycan array binding signal (z-score): -0.065
Gal4S(b1-4)GlcNAc
  glycan array binding signal (z-score): -0.061
Gal4S6S(b1-4)GlcNAc
  glycan array binding signal (z-score): -0.059
Gal6P(b1-4)GlcNAc
  glycan array binding signal (z-score): -0.07
Gal6S(b1-3)GlcNAc
  glycan array binding signal (z-score): -0.057
Gal6S(b1-3)GlcNAc6S
  glycan array binding signal (z-score): -0.054
Gal6S(b1-4)Glc
  glycan array binding signal (z-score): -0.079
Gal6S(b1-4)Glc6S
  glycan array binding signal (z-score): -0.08
Gal6S(b1-4)GlcNAc
  glycan array binding signal (z-score): -0.081
Gal6S(b1-4)GlcNAc6S
  glycan array binding signal (z-score): -0.061
GalNAc(a1-3)Gal
  glycan array binding signal (z-score): -0.078
GalNAc(a1-3)GalNAc
  glycan array binding signal (z-score): -0.072
[8]
  glycan array binding signal (z-score): -0.088
[9]
  glycan array binding signal (z-score): -0.066
GalNAc(b1-3)Gal
  glycan array binding signal (z-score): -0.033
[10]
  glycan array binding signal (z-score): -0.079
[11]
  glycan array binding signal (z-score): -0.089
[12]
  glycan array binding signal (z-score): -0.07
GalNAc(b1-3)GalNAc
  glycan array binding signal (z-score): -0.061
GalNAc(b1-4)Gal(b1-4)Glc
  glycan array binding signal (z-score): -0.067
GalNAc(b1-4)GlcNAc
  glycan array binding signal (z-score): -0.045
[13]
  glycan array binding signal (z-score): -0.07
GalNAc(b1-4)GlcNAc6S
  glycan array binding signal (z-score): -0.056
GalNAc(b1-6)GalNAc
  glycan array binding signal (z-score): -0.068
GalNAc3S(b1-4)GlcNAc
  glycan array binding signal (z-score): -0.066
GalNAc3S(b1-4)GlcNAc3S
  glycan array binding signal (z-score): -0.07
GalNAc4S6S(b1-4)GlcNAc
  glycan array binding signal (z-score): -0.071
GalNAc6S(b1-4)GlcNAc
  glycan array binding signal (z-score): -0.075

— the supplement of paper PMC8728848
